# Measured values published in the supplement of paper PMC3334620.
# Over roughly 33,000 sequences, “E-score (-0.5 to 0.5)” has its median near -0.043; the highest 2% begin near 0.37. The list shows a part of the results.
# Molecular target: T1, Upc2 (UniProt Q12151)
# T1 sequence: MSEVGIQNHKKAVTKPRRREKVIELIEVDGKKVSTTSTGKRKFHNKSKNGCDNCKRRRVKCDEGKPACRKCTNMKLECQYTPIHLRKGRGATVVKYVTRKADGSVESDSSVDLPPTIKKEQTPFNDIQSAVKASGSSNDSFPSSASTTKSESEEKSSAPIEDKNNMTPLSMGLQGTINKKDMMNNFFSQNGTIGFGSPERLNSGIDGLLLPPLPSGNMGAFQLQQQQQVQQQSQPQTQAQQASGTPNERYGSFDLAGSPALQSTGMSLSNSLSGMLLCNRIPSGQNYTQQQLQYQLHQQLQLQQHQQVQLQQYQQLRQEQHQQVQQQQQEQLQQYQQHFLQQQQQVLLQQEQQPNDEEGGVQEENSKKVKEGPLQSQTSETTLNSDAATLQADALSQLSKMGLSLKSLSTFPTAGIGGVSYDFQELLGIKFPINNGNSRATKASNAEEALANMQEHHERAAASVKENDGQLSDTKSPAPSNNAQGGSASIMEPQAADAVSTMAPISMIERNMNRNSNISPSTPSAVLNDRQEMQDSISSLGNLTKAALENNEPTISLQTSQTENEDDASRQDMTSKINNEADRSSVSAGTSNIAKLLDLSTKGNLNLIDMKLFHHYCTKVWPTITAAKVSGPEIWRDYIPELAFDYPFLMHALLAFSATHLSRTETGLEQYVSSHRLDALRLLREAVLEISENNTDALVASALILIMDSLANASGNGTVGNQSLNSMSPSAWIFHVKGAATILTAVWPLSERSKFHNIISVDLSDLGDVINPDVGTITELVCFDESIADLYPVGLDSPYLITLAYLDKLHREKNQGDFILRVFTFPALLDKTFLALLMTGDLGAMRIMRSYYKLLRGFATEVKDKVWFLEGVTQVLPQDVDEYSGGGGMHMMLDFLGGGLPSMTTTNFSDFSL
# Assay: PBM E-score (8-mer binding enrichment) (E-score (-0.5 to 0.5)); higher = stronger / more preferred TF binding; most listed sequences are background and not binding sites
# Settings: protein concentration: 200 nM; construct: GST-full length
# Protocol: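 Universal 'all 10-mer' protein binding microarrays (Agilent AMADID 015681) probed with GST-tagged S. cerevisiae TFs (full-length or DBD) made by in vitro transcription/translation (PURExpress), about 100-200 nM. Bound TF was detected with fluorescent anti-GST. Each ungapped 8-mer (which stands for itself and its reverse complement) is scored by the PBM enrichment score (E-score), a modified Wilcoxon-Mann-Whitney statistic from -0.5 to +0.5, computed with the Universal PBM Analysis Suite. Scale: above 0.35 generally sequence-specific binding.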
row,Sequence,PBM E-score
1,CGTGGCCC,-0.137
2,AATCTCGA,0.0517
3,AAGAGCGA,0.138
4,GCAATCCA,-0.151
5,GAAACTCA,0.0109
6,GTCATGAC,0.0371
7,ACCAAATG,-0.135
8,ACCCTAGT,-0.279
9,CGAAACAA,0.188
10,CGGGAGTA,-0.028
11,GCAACAGC,-0.191
12,GGGCCCAC,0.125
13,ACCGCTCA,0.0434
14,ATTTCGAC,-0.0393
15,AATTTGAT,-0.0842
16,CGTCGCTC,0.256
17,TTCAGCAA,-0.0506
18,ACAACCGC,0.127
19,TATCGGCA,-0.11
20,CCCCAATC,-0.371
21,ACTCGGAA,0.0882
22,ATGTGATG,-0.159
23,TCACCGGA,-0.142
24,GGAGAAAC,0.0297
25,CGCGGCGC,-0.135

row,Sequence,PBM E-score
1,ACATAGAT,-0.164
2,CAAGAGAC,-0.194
3,ATCGCTGA,0.205
4,CCCCACAC,-0.161
5,CCCCTTTC,-0.0709
6,TAGCTACA,0.00914
7,TAGCGAAA,0.18
8,ACAGCTGT,-0.131
9,TCGGCCGA,-0.194
10,ATCAAAGC,-0.0926
11,AGACACGC,0.104
12,AATGGTAT,-0.0952
13,GAGACGCC,-0.0116
14,GTAACTCA,-0.0406
15,TCCAGACA,-0.0333
16,GACTTGTA,-0.0478
17,AGCCCAGG,-0.379
18,CCTCCTCA,-0.168
19,AACTGAGT,-0.127
20,AAAGTGCA,-0.0392
21,ACCCATAC,0.145
22,ACTGCCCT,-0.145
23,AAAAAGGC,-0.0109
24,CAAACGGA,0.318
25,ACACTGCG,0.0863

row,Sequence,PBM E-score
1,CTACCTCC,0.109
2,AAGGAGGG,-0.164
3,CGACGGCC,0.15
4,ACGAGCCG,0.371
5,ACAAGCTA,-0.00666
6,ACTAGGTC,0.0604
7,GATCGCCC,0.0445
8,CGATTTAC,0.209
9,AATGTTTA,-0.011
10,ATTACCCA,-0.113
11,TCTTATCA,0.0884
12,ATGCAGCA,-0.0711
13,CAACGGTG,0.0103
14,CACCGCGA,-0.0507
15,ACGTCAAT,0.0234
16,AAAATTTC,-0.00276
17,ACGGGGTG,0.155
18,TGAATTAA,0.0996
19,AGATTGGG,-0.164
20,CCTTCACC,-0.241
21,AGGAATTC,-0.135
22,AAAACGCT,-0.0211
23,CAACTATA,0.143
24,ACCGTCCA,-0.0792
25,CCTCAGTC,-0.169

row,Sequence,PBM E-score
1,GATGAAAA,0.0354
2,CTTCAACA,-0.039
3,AAATGCTC,-0.0466
4,CTTCTTAA,0.0092
5,AGGGCGCG,-0.0167
6,AGCAATTC,-0.029
7,TGGGCTAA,-0.0401
8,AACGGTCG,0.28
9,CCTCGGCG,0.114
10,AGGAGCCC,-0.0823
11,AAGTCGAC,-0.00442
12,AAAACACA,-0.0496
13,AAAAAAAG,-0.0152
14,ATTCCATA,0.0936
15,AAACTCAG,-0.173
16,CGCCCGAA,0.0251
17,CCACCATC,-0.293
18,ACCAGGCT,-0.172
19,GGTTGGAA,-0.0677
20,TGCCCACA,-0.226
21,GCCCCGTA,0.305
22,GGCCACTA,-0.226
23,CAACCCAA,-0.0577
24,TCCTACAA,-0.00717
25,AGTCGCAG,-0.0754

row,Sequence,PBM E-score
1,GAAAGTTA,0.0498
2,CATGAGCG,0.0815
3,GCCCTAGA,-0.0739
4,GACCTATC,-0.124
5,AATAAACT,-0.0754
6,AAGCACGC,-0.0422
7,ATGAGTAG,-0.127
8,ACGTTGTC,-0.0308
9,CGAGACAG,0.0945
10,CAAGAAAC,-0.0795
11,ATGCGGGC,-0.0472
12,CGGTGTTA,0.101
13,ACATCAGT,-0.141
14,GTCCTGCA,-0.262
15,ACATTTCG,0.0532
16,ATGGTCCG,0.0316
17,CCCCCCGA,-0.231
18,CGTACAAC,0.439
19,ATGCACGC,-0.103
20,ATCAATAA,0.0472
21,CGCTGCGC,0.0138
22,AAGTCGAA,-0.16
23,CGTCAAAC,0.242
24,AACCGCTA,-0.0239
25,AACCAATT,-0.179

row,Sequence,PBM E-score
1,AAGCTAGT,-0.189
2,CTTTGAAA,0.142
3,TCAGTCCA,-0.272
4,GCTGTCCA,-0.246
5,TATAGCCA,0.173
6,CGGCGGCA,-0.106
7,CGGCAGTC,0.0795
8,CCAGTTCC,-0.102
9,AAAGATCT,0.0358
10,TACTTATA,0.117
11,CATGTCGA,-0.171
12,TAATTTGA,0.0182
13,AAACCTTT,-0.138
14,ATACGTTG,0.325
15,CGCATCAC,-0.0629
16,ATCTCGCC,-0.0574
17,TCCGGCCA,-0.106
18,AGTCTGTC,-0.0794
19,ACTAGTGG,-0.223
20,ATAGCAAC,-0.172
21,AAGAGGGA,0.0615
22,CGACGCAA,0.121
23,TCGCCGCA,-0.0606
24,AGAGACGG,-0.226
25,AGGTGTGA,-0.259

row,Sequence,PBM E-score
1,CGCAGGCG,-0.263
2,ACGAGACC,0.347
3,AGCGATAG,0.0747
4,CCATGTTA,-0.0947
5,CCTCGTAA,0.444
6,AACTTCTA,-0.0203
7,TAATACCA,-0.0667
8,AGCGTCGG,0.073
9,ACAGAGAG,-0.14
10,CCAGTTTA,0.0344
11,CAGGGCGG,-0.129
12,AACAACGA,0.17
13,GCGGTCAC,-0.134
14,AGGTCACA,-0.149
15,AATGACAA,-0.0542
16,TAGGCGAA,0.0974
17,AGGACCTA,0.0278
18,TGCTGAAA,-0.21
19,AGCGCATC,0.201
20,CATCGCGG,-0.0154
21,ATGCCATG,0.0786
22,CTGTCTCC,-0.11
